# Test results taken from PubChem BioAssay AID1508642 (National Center for Advancing Translational Sciences (NCATS), 2021).
# Screen size: about 43,000 compounds; about 200 (0.47%) were called active. Another 12% or so got no clear call; they are omitted. The call rests on the fitted dose curve; in most records, active means well fitted cell-killing curve with a large enough effect; inconclusive means small, poorly fitted or top-dose-only effect, or effect the other way; inactive means flat fitted curve, though single readings scatter. Some of the results follow.
# Experiment: Cell viability qHTS assay in S16 Pmp22-F2sN cells; further: nearly all actives have a fitted effect of over 65% in size
# Conditions: S16 Pmp22-F2sN Schwann cells (luciferase reporters placed in the Pmp22 gene) viability, CellTiter-Glo, 24 h; series mostly up to 57.5 µM; activity change, negative = cytotoxicity: at the top concentration
# Summary of the method: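 S16 Schwann cells carrying the Pmp22-F2sN reporter, seeded in 1536-well format, were exposed to library compounds for 24 h at 37C. Viability was read as CellTiter-Glo luminescence after 15 min at room temperature.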
# On the % scale 0 is the no-effect control and ±100 the full control effect.
row,Compound,"activity change, negative = cytotoxicity"
1,Cc1cccc(N2CCN(CCCNc3ncnc4onc(-c5ccc(F)cc5)c34)CC2C)c1 (stereo not drawn),inactive: -27.2%
2,O=C(Nc1ccc(F)c(F)c1)c1cc(S(=O)(=O)NC2CCCC2)ccc1F,inactive: -17.3%
3,CCC(C)NC(=O)Cn1ccc2cc(S(=O)(=O)N3CCCCCC3)ccc21 (stereo not drawn),inactive: 4.06%
4,O=C(CCNS(=O)(=O)c1ccc2c(c1)CCN2C(=O)C1CC1)Nc1ccc(OC(F)(F)F)cc1,inactive: -9.28%
5,COc1cccc(C(=O)Nc2ccc3nc(SCCOc4ccccc4)sc3c2)c1,inactive: 13.1%
6,COc1cccc(NC(=O)C2CCCN(c3ncnc4onc(C)c34)C2)c1 (stereo not drawn),inactive: -2.1%
7,CCCCOc1cccc(C2c3c(-c4cc(C)ccc4O)n[nH]c3C(=O)N2CCOC)c1 (stereo not drawn),inactive: -8.83%
8,COc1ccc(NC(=O)CNC(=O)Cn2ccc3ccccc3c2=O)cc1OC,inactive: 0.53%
9,O=C(Nc1ccccc1C(=O)N1CCCCC1)c1nsc2ccccc12,inactive: -9.39%
10,Cc1oc(-c2cccc(Cl)c2)nc1Cn1c(SCc2ccc(F)cc2)nc2cccnc21,inactive: -25.6%
11,COc1cc2c(C(=O)N(C)c3cccc(C(F)(F)F)c3)cn(CC(C)C)c(=O)c2cc1OC,inactive: -8.85%
12,Cc1ccc(C(c2sc3nc(-c4ccco4)nn3c2O)N2CCN(c3ccc(F)cc3)CC2)cc1 (stereo not drawn),inactive: 3.56%
13,CCCCN(C)C(=O)CCC(=O)NNc1nc2ccccc2c2nc(C)nn12,inactive: 3.61%
14,COc1cc2c(cc1OC)C(COc1cc(C)cc(C)c1)N(C(=O)C(C)(C)C)CC2 (stereo not drawn),inactive: 9.06%
15,CCC(Nc1ccc(-c2nc(-c3ccccn3)no2)cc1[N+](=O)[O-])c1ccccc1 (stereo not drawn),inactive: 5.92%
16,Cc1cc2n(n1)CCCN2C(=O)Nc1ccccc1C(F)(F)F,inactive: -5.03%
17,CCC(C)OC(=O)/C(C#N)=C/c1ccc(-c2ccc(Br)cc2)o1 (stereo not drawn),inactive: 6.87%
18,O=C(CCCCCn1c(=O)c2sccc2n(CC(=O)Nc2ccccc2F)c1=O)NCc1ccc2c(c1)OCO2,inactive: -0.565%
19,COc1cc(CN(C(=O)COc2ccccc2)c2ccccn2)cc(OC)c1OC,inactive: 1.34%
20,Cc1ccc(C2CC(=O)Nc3c2c(C)nn3-c2nc(C)cc(C)n2)c(C)c1 (stereo not drawn),inactive: 19.3%
21,Cn1c(=O)oc2cc(S(=O)(=O)CCC(=O)NCc3ccc(Cl)cc3)ccc21,inactive: 0.744%
22,Cc1ccsc1CN(Cc1ccco1)c1cnc(S(C)(=O)=O)nc1C(=O)Nc1ccc(Cl)cc1,inactive: -12%
23,Cc1ccccc1C(=O)N1CCC(c2nc(-c3ccc(S(=O)(=O)N4CCCC4)cc3)no2)CC1,inactive: 6.32%
24,Cc1cccc(C(=O)Nc2ccc(OCc3cc(=O)n4ccc(C)cc4n3)cc2)c1,inactive: 3.99%

row,Compound,"activity change, negative = cytotoxicity"
1,Cc1ccc(NS(=O)(=O)c2ccc(-n3cccn3)cc2)c(Br)c1,inactive: 5.21%
2,COc1ccc(Nc2nc3ccccc3n3c(N)nnc23)cc1,inactive: -18.1%
3,CC1CCN(C(=O)CN2CC(C)Sc3ccccc32)CC1 (stereo not drawn),inactive: -0.621%
4,Cc1ccc(NC(=O)N2CC=C(c3c[nH]c4ccccc34)CC2)cc1Cl,inactive: -12.6%
5,CCOCCn1ccc2c(OCC(=O)Nc3cc(C)cc(C)c3)cccc2c1=O,inactive: 4.48%
6,COc1ccc(-c2cn3nc(SCC(=O)Nc4cccc(C)c4C)ccc3n2)cc1,inactive: 3.49%
7,O=C1CN(C(=O)c2ccc(S(=O)(=O)N3CCCC3)cc2)C(c2ccc(F)cc2)c2cc(Br)ccc2N1 (stereo not drawn),inactive: -15.8%
8,CCC1CN(S(=O)(=O)c2cc(-c3cc(C)no3)ccc2OC)c2cc(Cl)ccc2O1 (stereo not drawn),inactive: -15.7%
9,Cc1ccc2c(c1)N(C(=O)N1CCC(C(=O)Nc3cccc(F)c3)CC1)CCO2,inactive: -16.2%
10,O=S(=O)(NCCc1csc2nc(-c3ccc(Cl)cc3)nn12)c1cccs1,inactive: -18.4%
11,CC(C)CC(=O)NC1CC(=O)N(c2ccc3c(c2)OCCO3)C1 (stereo not drawn),inactive: 24.1%
12,CN(Cc1ccccc1)c1nc2c(S(=O)(=O)c3cccc(Cl)c3)nnn2c2ccsc12,inactive: 0.891%
13,CCCCNC(=O)CSc1nc2cc3c(cc2c(=O)n1CCCC(=O)NCc1ccc(OC)cc1)OCO3,inactive: 0.534%
14,O=C(COc1ccc(Cl)cc1)OCc1cc(=O)n2nc(C3CCCCC3)sc2n1,inactive: -16.7%
15,CCOC(=O)c1ccc2c(c1)N(Cc1cc(C)ccc1C)C(=O)c1ccccc1S2(=O)=O,inactive: -0.667%
16,Cc1cc(C)cc(NC(=O)[C@H]2O[C@@H]3OC(C)(C)O[C@@H]3[C@H]3OC(C)(C)O[C@H]32)c1,inactive: 21.8%
17,COc1cc(Nc2nc3c(S(=O)(=O)c4ccccc4)nnn3c3ccc(Cl)cc23)cc(OC)c1,inactive: -0.542%
18,O=c1c2oc3ccccc3c2n(Cc2ccccc2Cl)c(=O)n1Cc1ccc2c(c1)OCO2,inactive: 22.1%
19,CCc1ccccc1NC(=O)CN(c1cc(C(F)(F)F)ccc1Cl)S(=O)(=O)c1ccccc1,inactive: 6.52%
20,CCc1ccccc1NC(=O)Cn1c(=O)n(-c2ccc(C)cc2)c(=O)c2cc(OC)c(OC)cc21,inactive: 1.51%
21,CCN(CCCNC(=O)Cn1ncc2c([nH]c3ccccc32)c1=O)c1cccc(C)c1,inactive: 3.35%
22,COC(=O)c1scc(-c2ccc(C)cc2)c1S(=O)(=O)N1CCN(c2cccc(Cl)c2)CC1,inactive: 27.8%
23,CCc1ccccc1Nc1sc(C(=O)c2ccccc2)c(N)c1S(=O)(=O)c1ccccc1,inactive: 7.79%
24,Cc1c(C(=O)Nc2c(F)cccc2F)sc2ncn(Cc3ccccc3F)c(=O)c12,inactive: -28.3%

row,Compound,"activity change, negative = cytotoxicity"
1,CC(=O)N1CCc2c(sc3c2c(=O)n(-c2ccccc2C)c(=O)n3CC(=O)Nc2ccccc2)C1,inactive: 27.9%
2,Cn1c(=O)sc2cc(NS(=O)(=O)c3ccc(C(C)(C)C)cc3)ccc21,inactive: -1.09%
3,Cc1ccc(S(=O)(=O)c2nc(-c3cccs3)oc2N2CCC(C)CC2)cc1,inactive: -13.6%
4,COc1ccc(Cl)cc1NC(=O)Cn1cc(S(=O)(=O)Cc2cccc(Cl)c2)c2ccccc21,inactive: -11.2%
5,CN1CCc2c(sc3c2C(=O)NC(c2ccc(OC(=O)c4ccc(Cl)cc4)cc2)N3)C1 (stereo not drawn),inactive: 20.1%
6,CC(=O)N1CCc2cc(Br)cc(S(=O)(=O)CCC(=O)NCCc3ccc(Cl)cc3)c21,inactive: 10.2%
7,CCCCOc1ccc(C(=O)N(Cc2nc(-c3ccc(Cl)cc3)no2)C(C)C)cc1,inactive: 7.06%
8,COc1ccc(CC(=O)NCCc2sc(-c3cccc(F)c3)nc2C)cc1,inactive: 0.701%
9,Cc1ccc(Cn2c(C)c(CNCc3ccc(OC(C)C)cc3)c(C(=O)O)c2C)cc1,inactive: 2.23%
10,CCOc1ccc(CCNC(=O)c2ccc(CS(=O)Cc3ccc(Cl)cc3)o2)cc1 (stereo not drawn),inactive: -21.3%
11,COc1ccc(N2CCN(C(=O)c3nn(-c4ccc(C)cc4)c(=O)n(C)c3=O)CC2)cc1,inactive: 6.55%
12,CCOC(=O)c1cc(-c2ccc(OC)cc2)nn1Cc1ccccc1,inactive: 4.41%
13,Cc1ccc(CSc2nc3c(c(=O)[nH]2)C(c2cccc(F)c2F)CC(=O)N3)cc1 (stereo not drawn),inactive: -2.47%
14,Cc1ccc(OCC(=O)Nc2ccc3nc(SCC(=O)N(C)c4ccccc4)sc3c2)cc1,inactive: -4.95%
15,COc1ccc(NC(=O)c2sc3nc[nH]c(=O)c3c2C)cc1OC,inactive: 1.57%
16,COc1cccc(CNC(=O)CN(C)S(=O)(=O)c2ccc3c(c2)c(=O)n(C)c(=O)n3C)c1,inactive: 4.11%
17,CC(C)c1ccc(NC(=O)C(Cc2ccccc2)NS(=O)(=O)c2ccc3c(c2)CCC(=O)N3)cc1 (stereo not drawn),inactive: 5.05%
18,Cn1nnnc1SCCNCc1ccccc1Cl,inactive: 9.84%
19,COc1cc2ncc3c(-c4ccccc4)nn(-c4ccc(C)cc4)c3c2cc1OC,inactive: 5.36%
20,COc1ccc(Cn2c(CO)cnc2SCC(=O)NCc2ccco2)cc1,inactive: 8.43%
21,Cc1ccc(C)c(CN2C(=O)c3ccccc3Sc3ccc(C(=O)NCc4ccc5c(c4)OCO5)cc32)c1,inactive: 4.33%
22,COc1cc(NC(=O)CC(C)S(=O)(=O)c2cc3c4c(c2)CCN4C(=O)CC3)cc(OC)c1 (stereo not drawn),inactive: 6.84%
23,Cc1ccccc1C(=O)Nc1cccc(C(=O)OCc2cc(=O)n3nc(C4CC4)sc3n2)c1,inactive: 2.9%
24,CC(=O)c1cccc(NC(=O)c2ccc3nc(C(C)C)oc3c2)c1,inactive: 12.3%

row,Compound,"activity change, negative = cytotoxicity"
1,COc1ccc(-c2nc(Cn3c(SCc4ccc(F)cc4)nc4cccnc43)c(C)o2)cc1,inactive: -2.14%
2,COc1ccc(NC(=O)c2c(NC(=O)c3cccc(C)c3)sc3c2CCCC3)cc1,inactive: 0.472%
3,Cc1ccc([N+](=O)[O-])cc1S(=O)(=O)N1CCn2cccc2C1c1ccc(F)c(F)c1 (stereo not drawn),inactive: -3.09%
4,Cc1ccc(OCC(=O)N(Cc2sccc2C)C2CCS(=O)(=O)C2)cc1 (stereo not drawn),inactive: 7.84%
5,Cc1ccccc1NC(=O)Nc1cccs1,inactive: -12.9%
6,O=C1c2oc3ccccc3c(=O)c2C(c2cccc(Br)c2)N1c1ccccn1 (stereo not drawn),inactive: 7.97%
7,CCCCN(C)C(=O)Cn1cnc2sc(C)c(S(=O)(=O)N3CCN(c4ccccc4OC)CC3)c2c1=O,inactive: 1.81%
8,CCOc1ccc(NC(=O)Cn2c(CCC(=O)O)ccc2-c2ccc(C)cc2)cc1,inactive: -3.42%
9,COc1ccc(-c2noc(CSc3nnc(-c4ccncc4)n3-c3ccc(C)c(C)c3)n2)cc1,inactive: -24.4%
10,Clc1ccc(Nc2nc(-c3ccccc3)c3cc(Cl)ccc3n2)cc1,inactive: 12.5%
11,Cc1ccc2onc(CC(=O)N3CCN(c4cccc(C)c4C)CC3)c2c1,inactive: -12.4%
12,Cc1cc(=O)n2nc(N3CCC(C(=O)NCc4ccc(Cl)cc4)CC3)sc2n1,inactive: -3.08%
13,O=C(Cn1c(=O)nc(-c2ccccc2)c2cc(Cl)ccc21)NCCc1ccccc1,inactive: -0.844%
14,COc1cc(Cl)c(C)cc1NC(=O)c1cc2c(s1)-c1c(C)cccc1OC2,inactive: -5.14%
15,Cc1cc2[nH]c(=O)c(=O)[nH]c2cc1S(=O)(=O)Nc1cccc(C(F)(F)F)c1,inactive: 5.61%
16,Cc1sc2ncn(CC(=O)N3CCN(c4ccc(F)cc4)CC3)c(=O)c2c1S(=O)(=O)N1CCN(c2ncccn2)CC1,inactive: 19.4%
17,CCc1nn(CC(=O)N2CCN(c3cccc(C)c3C)CC2)c(=O)c2cc3sccc3n12,inactive: 3.9%
18,CCC(=O)N1CCc2cc(S(=O)(=O)NC(CC(C)C)C(=O)NCc3ccc(C)cc3)ccc21 (stereo not drawn),inactive: -2.68%
19,O=C(c1cc(F)cc(F)c1)N1CCC(c2nc(-c3ccc(S(=O)(=O)N4CCCC4)cc3)no2)CC1,inactive: -0.526%
20,COc1ccc(OC)c(CCNC(=O)c2cc3c(=O)n(C)c4ccccc4c3n2C)c1,inactive: 14.3%
21,CCOc1ccc(NC(=O)CN2CCN(c3ccc(Cl)cc3)CC2)cc1,inactive: -0.223%
